Experimental data as given in PubChem BioAssay AID485360 (National Center for Advancing Translational Sciences (NCATS), 2010).
Hit rate of the full screen: of about 230,000 compounds, about 1,500 (0.65%) were called active. Inconclusive results, whose numbers are uncertain, are shown with a selection of clear calls. The call rests on the fitted dose curve; in most records, active means well fitted inhibition curve with a large enough effect; inconclusive means small, poorly fitted or top-dose-only effect; inactive means no such curve, though single readings can be large or run the other way. Potencies of inconclusive entries are doubtful fits and often do not repeat.
Further: nearly all actives have a fitted effect of over 60% in size.
On the % scale 0 is the no-effect control and ±100 the full control effect; potency means the concentration at half of the fitted maximal effect; tags describe the fitted curve by direction and shape.

The compounds below were run against Lethal(3)malignant brain tumor-like protein 1 (Homo sapiens) (UniProt Q9Y468) (assay: qHTS Assay for the Inhibitors of L3MBTL1). Settings: AlphaScreen L3MBTL1–H3K9me1 peptide binding; activity, negative = inhibition: at 57.1 µM (top of the series).
UniProt Q9Y468, sequence (Q9Y468 whole entry, looked up): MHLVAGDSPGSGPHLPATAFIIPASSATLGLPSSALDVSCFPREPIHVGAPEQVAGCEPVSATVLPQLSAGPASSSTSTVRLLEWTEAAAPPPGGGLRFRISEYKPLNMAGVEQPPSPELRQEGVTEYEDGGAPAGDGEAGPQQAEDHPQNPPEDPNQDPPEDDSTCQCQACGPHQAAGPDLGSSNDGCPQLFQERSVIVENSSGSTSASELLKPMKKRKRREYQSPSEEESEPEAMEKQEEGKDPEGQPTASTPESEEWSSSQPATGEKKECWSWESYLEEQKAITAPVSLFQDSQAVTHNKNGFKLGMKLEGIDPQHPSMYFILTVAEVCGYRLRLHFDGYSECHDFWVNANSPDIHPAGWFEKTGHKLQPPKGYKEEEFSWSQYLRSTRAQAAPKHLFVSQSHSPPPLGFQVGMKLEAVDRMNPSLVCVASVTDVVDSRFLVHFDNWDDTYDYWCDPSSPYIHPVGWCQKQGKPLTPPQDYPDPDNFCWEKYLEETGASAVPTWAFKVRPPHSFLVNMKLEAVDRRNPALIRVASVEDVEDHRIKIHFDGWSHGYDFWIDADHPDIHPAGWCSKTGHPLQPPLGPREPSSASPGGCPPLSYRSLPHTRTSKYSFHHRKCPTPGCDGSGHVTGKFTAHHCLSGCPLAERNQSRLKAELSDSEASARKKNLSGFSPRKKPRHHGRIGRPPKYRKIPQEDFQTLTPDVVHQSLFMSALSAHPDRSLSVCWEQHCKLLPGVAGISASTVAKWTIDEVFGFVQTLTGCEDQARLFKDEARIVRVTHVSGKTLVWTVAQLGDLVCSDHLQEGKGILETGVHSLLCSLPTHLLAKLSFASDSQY
Summary of the method: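 First, the protein-peptide complex forms for 30 min at room temperature (L3MBTL1 50 nM, biotinylated H3K9me1 peptide 75 nM). Next, compounds are pin-transferred and incubated 30 min. Finally, AlphaScreen beads are added and read after 30 min.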
`CCCCN1C(=O)NC2NC(=O)NC21` (centres undefined) was tested, and the “activity, negative = inhibition” value was inactive: -15.2%. For `CC(C)/C=C1\CC/C(=C\c2ccc(N(C)C)cc2)C1=O`, the Potency was inconclusive: 39.8 µM [inhibitor, single point]. For `C=C1c2c(Cl)ccc(O)c2C(O)=C2C(=O)[C@]3(O)C(O)=C(C(N)=O)C(=O)[C@@H](N(C)C)[C@@H]3[C@@H](O)C12` (some centres undefined), the Potency was active: 0.447 µM. For `O=C(Cc1nc(-c2ccc([N+](=O)[O-])cc2)cs1)Nc1ccccc1`, the “activity, negative = inhibition” value was inactive: -7.27%. In the case of `CCOc1ccc(/C=C2\SC(=S)N(Nc3ccccc3)C2=O)cc1OC`, the “activity, negative = inhibition” value is reported as inactive: -5.69%. `COc1ccc(Nc2cc(C)nc(NCc3ccccc3)n2)cc1` was tested, and the Potency was inconclusive: 15.8 µM [inhibitor, partial curve]. In the case of `CCOC(=O)C1=C(C)N(c2ccc(OC)cc2)C(=O)/C1=C\c1cccs1`, the Potency is reported as inconclusive: 17.8 µM [inhibitor, partial curve]. With `COC(=O)c1ccc(CSc2nc3scc(-c4cccs4)c3c(=O)[nH]2)o1` the Potency was inconclusive: 22.4 µM [inhibitor, single point]. `CN(C(=O)COC(=O)CCC(=O)c1ccccc1)c1c(N)n(Cc2ccccc2)c(=O)[nH]c1=O` was tested, and the Potency was inconclusive: 3.55 µM [inhibitor, single point]. In the case of `COC(=O)N1N=C(c2ccccc2)CC1(O)C(F)(F)F` (centres undefined), the Potency is reported as inconclusive: 39.8 µM [inhibitor, single point]. `CCOC(=O)C(=O)C1C(=O)Nc2ccccc21` (centres undefined) was tested, and the Potency was inconclusive: 0.794 µM [inhibitor, single point]. In the case of `COc1ccc(/C=N/NC(N)=S)cc1OC(=O)c1cccc2ccccc12`, the “activity, negative = inhibition” value is reported as inactive: -11.5%. With `Cc1csc2ncc(C(=O)NCc3ccccc3Cl)c(=O)n12` the Potency was inconclusive: 4.47 µM [inhibitor, full curve, poor fit]. With `O=C(CCCCCn1c(SCc2ccncc2)nc2ccccc2c1=O)NCc1ccco1` the Potency was inconclusive: 39.8 µM [inhibitor, single point]. For `Cc1ccsc1/C=C1\SC(=S)N(CC2CCCO2)C1=O` (centres undefined), the Potency was inconclusive: 3.16 µM [inhibitor, full curve, poor fit]. For `CCOC(=O)N1CCN(S(=O)(=O)c2ccc(C(=O)Nc3nnc(C)o3)cc2)CC1`, the “activity, negative = inhibition” value was inactive: -5.82%. With `CC(C)CC(NC(=O)c1ccccc1)C(=O)N/N=C/c1ccco1` (centres undefined) the Potency was inconclusive: 22.4 µM [inhibitor, single point]. With `COC(=O)C1C(=O)C2=C(CC1C)NC(C)=C(C(=O)OC1CCCC1)C2c1ccc(N(C)C)cc1` (centres undefined) the Potency was inconclusive: 20 µM [inhibitor, single point]. In the case of `NC(Cc1ccc(O)c([N+](=O)[O-])c1)C(=O)O` (centres undefined), the “activity, negative = inhibition” value is reported as inactive: -0.189%. In the case of `CN(CC(=O)Nc1ccc(F)c(F)c1F)C(=O)CCc1nc2sc3c(c2c(=O)[nH]1)CCCC3`, the Potency is reported as inconclusive: 31.6 µM [inhibitor, single point]. `CCOc1ccc2nc(SCC(=O)NC(=O)NCc3ccco3)[nH]c2c1` was tested, and the Potency was inconclusive: 35.5 µM [inhibitor, single point]. In the case of `O=C1Cc2ccccc2Sc2c(OCCN3CCCCC3)cccc21`, the Potency is reported as inconclusive: 39.8 µM [inhibitor, partial curve]. `O=C(NCCO)C(=O)c1c(-c2ccccc2)cc2ccccn12` was tested, and the Potency was inconclusive: 0.891 µM [inhibitor, full curve]. For `Cc1ccc(-n2cc(CN(C)Cc3ncc[nH]3)c(-c3cccc(C)c3)n2)cc1`, the Potency was inconclusive: 39.8 µM [inhibitor, partial curve]. With `Cn1cnnc1SCC(=O)NN1C(=O)NC(C)(c2ccccc2)C1=O` (centres undefined) the “activity, negative = inhibition” value was inactive: -0.702%. With `O=C(COCC(=O)N1CCOCC1)N1CCOCC1` the Potency was inconclusive: 7.08 µM [inhibitor, single point]. In the case of `C=CCn1c(P(=O)(O)c2ccccc2)nc2ccccc21`, the Potency is reported as inconclusive: 14.1 µM [inhibitor, partial curve]. `Cc1ccc(-n2c(C)cc(C(=O)CN3CCOCC3)c2C)cc1C` was tested, and the Potency was inconclusive: 11.2 µM [inhibitor, partial curve]. `CCOc1ccccc1-n1c(SCC(=O)N(CC)CC)nnc1-c1ccccn1` was tested, and the “activity, negative = inhibition” value was inactive: -5.04%. In the case of `COc1ccc2c(c1OC)C(=O)N(c1ncn[nH]1)C2`, the Potency is reported as inconclusive: 1.78 µM [inhibitor, single point]. In the case of `Cc1ccoc1C(=O)NCc1occc1C(=O)O`, the Potency is reported as inconclusive: 31.6 µM [inhibitor, single point]. For `CCOC(=O)c1c(CSC(=N)N)n(-c2ccc(Br)cc2)c2cc(Br)c(OC(C)=O)cc12`, the “activity, negative = inhibition” value was inactive: -2.2%. For `CNc1nc(-c2ccc3c(c2)CCN3C(=O)c2ccc(F)cc2)cs1`, the “activity, negative = inhibition” value was inactive: 9.37%. `O=C(CN(C(=O)Cn1nnc(-c2ccc(F)cc2)n1)c1ccc(F)c(Cl)c1)NCC1CCCO1` (centres undefined) was tested, and the Potency was inconclusive: 8.91 µM [inhibitor, single point].
